# According to PubChem BioAssay AID504832 (National Center for Advancing Translational Sciences (NCATS), 2011):
# The whole screen tested about 310,000 compounds, of which about 18,000 (5.8%) were called active. This list was built around the results that the source calls inconclusive (neither active nor inactive); the mix of calls is not that of the screen. Calls follow the shape of the dose curve; as a rule, active = well fitted inhibition curve with a large enough effect; inconclusive = small, poorly fitted or top-dose-only effect, or another doubt; inactive = no such curve, though single readings can be large or run the other way. Potencies of inconclusive entries are left out as doubtful fits.
# Experiment: Primary qHTS for delayed death inhibitors of the malarial parasite plastid, 48 hour incubation
# Conditions: P. falciparum luciferase growth in erythrocytes; series mostly up to 28.7 µM; activity change, negative = inhibition: at the top concentration
# How it was run: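 Parasite viability was followed by luminescence of a genomically integrated firefly luciferase. Cultures held 0.1% parasitemia at 2% hematocrit (final), incubated under 5% CO2 at 37 C.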
# % is scaled to controls: 0 for no effect and ±100 for the full control effect; potency is read from the fitted curve at half-maximal effect; tags tell the direction and shape of the fitted curve.
Structure (SMILES),"activity change, negative = inhibition",Potency
O=C(CN(c1ccccn1)S(=O)(=O)c1ccccc1)Nc1ccccc1,inactive: 20.1%,
CC(C)C[C@H]1C(=O)N2CCC[C@H]2[C@]2(O)O[C@](NC(=O)[C@@H]3C=C4c5cccc6[nH]cc(c56)C[C@H]4N(C)C3)(C(C)C)C(=O)N12,,active: 2.94 µM
COC(=O)CCCC1=CC2=CC(=O)C(C)(OC(=O)c3cccs3)C(=O)C2=CN1CCN1CCOCC1 (stereo not drawn),,"inconclusive [inhibitor, partial curve]"
CCOC(=O)c1cc(C(=O)OCC)c(=O)[nH]c1N1CCCCC1,,"inconclusive [inhibitor, partial curve, poor fit]"
Cc1c(CCOC(=O)C2C3CC4CC(C3)CC2C4)sc[n+]1CC(=O)c1ccc(Br)cc1 (stereo not drawn),,"inconclusive [inhibitor, partial curve, poor fit]"
C=CCNC(=O)CN(c1ccccc1OCC)S(=O)(=O)c1ccc(C)cc1,,"inconclusive [inhibitor, partial curve, poor fit]"
CC1(C)CC(=O)C(C2=NC3(CCCCC3)Cc3ccccc32)=C(O)C1,,"inconclusive [inhibitor, single point]"
COc1ccc(NC(=O)Cn2cc(S(=O)(=O)Cc3ccccc3)c3ccccc32)c(OC)c1,,"inconclusive [inhibitor, single point]"
O=C(COc1ccccc1Cl)Nc1ccc(CN2CCCCC2)cc1,,"inconclusive [inhibitor, partial curve]"
Cc1ccsc1C1C2=C(CCCC2=O)Nc2ncnn21 (stereo not drawn),,"inconclusive [inhibitor, partial curve, poor fit]"
Cc1ccc(-n2c(N)c(-c3nc4ccccc4n3C)sc2=S)cc1,,active: 1.47 µM
COc1cccc(CN2CCC(C(=O)N3CCN(Cc4ccc5c(c4)OCO5)CC3)CC2)c1OC,inactive: -6.14%,
N=C1/C(=C/c2cccs2)C(=O)N=C2SN=C(SCc3ccccc3)N12,inactive: 3.82%,
COc1cc(NC(=O)Cn2c(-c3cncs3)nc3ccccc32)cc(OC)c1OC,,active: 2.33 µM
CN(C)CCCN(Cc1cc2cc3c(cc2[nH]c1=O)OCCO3)C(=O)NC1CCCCC1,,"inconclusive [inhibitor, single point]"
O=C(OCC#CCNc1nnc(-c2cccc3ccccc23)o1)c1cccs1,,"inconclusive [inhibitor, single point]"
O=C1CCCN1CCCNc1nc2c(S(=O)(=O)c3ccccc3)nnn2c2ccc(Cl)cc12,,"inconclusive [inhibitor, partial curve, poor fit]"
COC(=O)CNC(=O)CNC(=O)c1nn(-c2ccc(OC)c(OC)c2)c(=O)c2ccccc12,inactive: 16.7%,
Cc1cccc(C(CC(=O)NCCc2ccccc2)c2ccccc2)c1O (stereo not drawn),,"inconclusive [inhibitor, full curve, poor fit]"
CC(C)(C)C(=O)Nc1cc(S(=O)(=O)N2CCCCC2)ccc1N1CCCCC1,,"inconclusive [inhibitor, partial curve, poor fit]"
Cc1c(S(=O)(=O)c2ccccn2)c(N)n(Cc2ccccc2)c1C,inactive: -16.7%,
COc1ccccc1NC(=O)NC1(C)CCS(=O)(=O)C1 (stereo not drawn),inactive: 22.6%,
Cc1ccccc1NC(=S)C1=C(O)c2sccc2N(C)S1(=O)=O,,"inconclusive [inhibitor, single point]"

Structure (SMILES),"activity change, negative = inhibition",Potency
Cc1nn2c(N3CCN(c4ccccn4)CC3)cc(C(C)C)nc2c1-c1ccccc1,,active: 3.29 µM
O=C(Nc1ccc2nc(-c3ccccc3)[nH]c2c1)c1ccco1,,"inconclusive [inhibitor, single point]"
CC(=O)C1=C(C)N(Cc2ccccc2)C(=O)N[C@H]1c1cccc(C(F)(F)F)c1,,"inconclusive [inhibitor, single point]"
O=C(c1cc2cc(Cl)ccc2[nH]1)N1CCN(Cc2ccc3c(c2)OCO3)CC1,,"inconclusive [inhibitor, single point]"
CCOC(=O)c1cc(CC)sc1NC(=O)c1ccc(N2CCOCC2)c([N+](=O)[O-])c1,,"inconclusive [inhibitor, partial curve, poor fit]"
O=C(c1cc(C2CC2)nn1-c1ccccc1)N1CCN(Cc2ccc(Cl)cc2)CC1,,"inconclusive [inhibitor, single point]"
C[C@@H](C(=O)NCc1c(F)cccc1Cl)N1C(=O)N2CCc3c([nH]c4ccccc34)[C@@]2(C)C1=O,,"inconclusive [inhibitor, partial curve, poor fit]"
COc1ccccc1-c1nnc(NC(=O)c2ccc(S(=O)(=O)N3CCOCC3)cc2)o1,,"inconclusive [inhibitor, single point]"
COc1ccccc1CN1CCNC(=O)C1CC(=O)NC1CCCCCC1 (stereo not drawn),,"inconclusive [inhibitor, partial curve, poor fit]"
COc1ccc2sc(-c3ccc(N(C)C)cc3)c(C#CC(C)(C)O)c2c1,,"inconclusive [inhibitor, single point]"
CSc1nncc(=O)[nH]1,,"inconclusive [inhibitor, single point]"
COC(=O)c1cnn2c(C(F)(F)F)cc(-c3ccccc3)nc12,,"inconclusive [inhibitor, single point]"
CC(C)(C)CN1CCNC(=O)C1CC(=O)NCCc1ccccc1C(F)(F)F (stereo not drawn),,"inconclusive [inhibitor, single point]"
N#Cc1ccc(C(=O)Nc2cc(S(=O)(=O)Nc3ccc(Cl)cc3)ccc2N2CCCCC2)cc1,,active: 13.1 µM
CC(C)C1Oc2ccccc2N(CC(=O)N(Cc2ccncc2)Cc2ccco2)C1=O (stereo not drawn),,"inconclusive [inhibitor, single point]"
O=C(NC1CCCC1)C(c1ccc(F)cc1)N(C(=O)c1csnn1)C1CC1 (stereo not drawn),inactive: 11.6%,
COc1ccc(/C=N/NC(=O)c2cc(-c3ccccc3OC)nc3ccccc23)cc1COC(C)=O,,active: 11.7 µM
Cc1ccsc1C(=O)Nc1ccccc1N1CCOCC1,inactive: -18.2%,
COc1ccccc1CC(=O)N(Cc1ccccc1)c1cccc(C)c1,,"inconclusive [inhibitor, single point]"
CCCn1c(NCc2cccs2)nc2ccccc21,inactive: -2.69%,
Cc1ccc(S(=O)(=O)NC(C)C(c2cccs2)N2CCN(c3ccccc3)CC2)cc1 (stereo not drawn),,"inconclusive [inhibitor, single point]"
CCOc1ccc(-n2c(-c3ccc(Br)cc3)c[n+]3c2CCCCC3)cc1,,active: 5.22 µM
Cc1ccc(NC(=O)c2ccc(S(=O)(=O)N3CCOCC3)cc2)cc1,inactive: -18.2%,

Structure (SMILES),"activity change, negative = inhibition",Potency
CC(C)CC(=O)Nc1nnc(CSCc2ccc(F)cc2)s1,inactive: -6.59%,
COc1ccc(NC(=O)CSc2nc(=O)n(CCN(C)C)c3c2CCCC3)cc1OC,,"inconclusive [inhibitor, single point]"
O=C1CC(c2ccccc2)n2nc(NS(=O)(=O)c3ccccc3)nc2N1 (stereo not drawn),inactive: 8.91%,
Cn1cncc1C#Cc1ccc2cc(CCCO)oc(=O)c2c1,inactive: -6.27%,
COc1ccc(C(=O)C2CCCN(Cc3cc(C)c(O)c(C)c3)C2)c(OC)c1 (stereo not drawn),,"inconclusive [inhibitor, partial curve, poor fit]"
CN(C(=O)c1ccc(NC(=O)Cc2ccc(NC(=O)C3CCN(C(=O)C4CC4)CC3)cc2)cc1)C1CC1,,"inconclusive [inhibitor, single point]"
CCCCC(CC)CNC(=O)CC1Nc2c3ccccc3nc(=S)n2C1=O (stereo not drawn),inactive: 17.6%,
Cc1cc(NC(=O)CSC2=Nc3ccccc3C3=NC(Cc4ccccc4)C(=O)N23)n[nH]1 (stereo not drawn),,"inconclusive [inhibitor, single point]"
CCN1CCN(c2ccc(NC(=O)COc3ccc([N+](=O)[O-])cc3)cc2)CC1,,"inconclusive [inhibitor, single point]"
COc1cc(/C=c2\s/c(=C\C(=O)C(C)(C)C)[nH]c2=O)cc(OC)c1OC,,"inconclusive [inhibitor, partial curve]"
CCOc1ccc(N=Nc2ccc(N)cc2N)cc1,,"inconclusive [inhibitor, partial curve, poor fit]"
CCOc1ccccc1NC(=O)c1cc(C(=O)c2cc(OC)ccc2O)coc1=N,,active: 4.65 µM
NC(=O)C1CCN(C(c2ccccc2Cl)c2nnnn2Cc2ccc3c(c2)OCO3)CC1 (stereo not drawn),inactive: -9.87%,
Cc1cc(OCC(=O)NNC(=O)c2ccncc2)cc(C)c1Cl,,"inconclusive [inhibitor, partial curve, poor fit]"
O=C1NC(c2ccccc2OC(F)F)Oc2ccccc21 (stereo not drawn),inactive: 80.5%,
O=C1c2ccccc2C(=Nc2ccccc2)C1c1cccc(Br)c1 (stereo not drawn),,"inconclusive [inhibitor, full curve]"
O=C(COc1ccc(S(=O)(=O)NC2CCCCC2)cc1)NC1CC1,inactive: 24.1%,
CC1CCCCC12NC(=O)N(CC(=O)N1CCN(S(=O)(=O)c3ccc4c(c3)CCC4)CC1)C2=O (stereo not drawn),,"inconclusive [inhibitor, single point]"
O=C1CC(C(=O)Nc2cccc3ccccc23)C2(CCCC2)O1 (stereo not drawn),inactive: 22.2%,
CCCn1c(SCC(=O)N2CCCCC2)nnc1C(C)C,inactive: 13.6%,
CCc1cc(-c2n[nH]c(C)c2-c2nc3ccccc3n2C)c(O)c(CN2CCN(C)CC2)c1O,,active: 11.7 µM
O=S(=O)(c1ccc(SCCOc2cccc(Br)c2)nc1)N1CCCC1,,"inconclusive [inhibitor, single point]"
